In the supplement of paper PMC8728848:
This is one part of the list.

Key:
Experiment in all cases: glycan array binding signal (z-score within array); higher = stronger binding
Settings in all cases: glycan notation: IUPAC condensed, linker removed
[1] = target: Gal(b1-3)GlcNAc(b1-3)Gal(b1-4)[Fuc(a1-3)]GlcNAc(b1-6)[Gal(b1-3)GlcNAc(b1-3)]Gal(b1-4)Glc
Outline: (§1)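 Negative Z-scores can be read as non-binding. The Z-score is calculated within each array and then averaged across arrays of one protein sequence at different concentrations or buffers and across linkers. Arrays, 3228 in all, were curated from the Consortium for Functional Glycomics database and kept only where the protein sequence was available.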

[2] = target: Gal(b1-3)GlcNAc(b1-3)GalNAc
Outline: as §1

[3] = target: Gal(b1-3)GlcNAc(b1-6)Gal(b1-4)GlcNAc
Outline: as §1

[4] = target: Gal(b1-3)[Fuc(a1-4)]GlcNAc
Outline: as §1

[5] = target: Gal(b1-3)[Fuc(a1-4)]GlcNAc(b1-2)Man(a1-3)[Gal(b1-3)[Fuc(a1-4)]GlcNAc(b1-2)Man(a1-6)]Man(b1-4)GlcNAc(b1-4)GlcNAc
Outline: as §1

[6] = target: Gal(b1-3)[Fuc(a1-4)]GlcNAc(b1-2)Man(a1-3)[Gal(b1-3)[Fuc(a1-4)]GlcNAc(b1-2)Man(a1-6)]Man(b1-4)GlcNAc(b1-4)[Fuc(a1-6)]GlcNAc
Outline: as §1

[7] = target: Gal(b1-3)[Fuc(a1-4)]GlcNAc(b1-3)Gal(b1-3)[Fuc(a1-4)]GlcNAc
Outline: as §1

[8] = target: Gal(b1-3)[Fuc(a1-4)]GlcNAc(b1-3)Gal(b1-4)GlcNAc
Outline: as §1

[9] = target: Gal(b1-3)[Fuc(a1-4)]GlcNAc(b1-3)Gal(b1-4)[Fuc(a1-3)]GlcNAc
Outline: as §1

[10] = target: Gal(b1-3)[GlcNAc(b1-6)]GalNAc
Outline: as §1

[11] = target: Gal(b1-3)[Neu5Ac(a2-6)]GalNAc
Outline: as §1

[12] = target: Gal(b1-3)[Neu5Ac(a2-6)]GlcNAc(b1-6)Gal(b1-4)Glc
Outline: as §1

[13] = target: Gal(b1-3)[Neu5Ac(b2-6)]GalNAc
Outline: as §1

[14] = target: Gal(b1-4)Gal
Outline: as §1

[15] = target: Gal(b1-4)GalNAc(a1-3)[Fuc(a1-2)]Gal(b1-4)GlcNAc
Outline: as §1

[16] = target: Gal(b1-4)GalNAc(b1-3)[Fuc(a1-2)]Gal(b1-4)GlcNAc
Outline: as §1

[17] = target: Gal(b1-4)Glc
Outline: as §1

[18] = target: Gal(b1-4)Glc6S
Outline: as §1

[19] = target: Gal(b1-4)GlcNAc
Outline: as §1

[20] = target: Gal(b1-4)GlcNAc(a1-6)Gal(b1-4)GlcNAc
Outline: as §1

[21] = target: Gal(b1-4)GlcNAc(b1-2)Man(a1-3)Man(b1-4)GlcNAc(b1-4)GlcNAc
Outline: as §1

[22] = target: Gal(b1-4)GlcNAc(b1-2)Man(a1-3)[Gal(b1-4)GlcNAc(b1-2)Man(a1-6)]Man(b1-4)GlcNAc(b1-4)GlcNAc
Outline: as §1

[23] = target: Gal(b1-4)GlcNAc(b1-2)Man(a1-3)[Gal(b1-4)GlcNAc(b1-2)Man(a1-6)]Man(b1-4)GlcNAc(b1-4)[Fuc(a1-6)]GlcNAc
Outline: as §1

[24] = target: Gal(b1-4)GlcNAc(b1-2)Man(a1-3)[Gal(b1-4)GlcNAc(b1-2)][GlcNAc(b1-4)]Man(b1-4)GlcNAc(b1-4)GlcNAc
Outline: as §1

[25] = target: Gal(b1-4)GlcNAc(b1-2)Man(a1-3)[GlcNAc(b1-2)Man(a1-6)]Man(b1-4)GlcNAc(b1-4)GlcNAc
Outline: as §1

[26] = target: Gal(b1-4)GlcNAc(b1-2)Man(a1-3)[Man(a1-6)]Man(b1-4)GlcNAc(b1-4)GlcNAc
Outline: as §1

[27] = target: Gal(b1-4)GlcNAc(b1-2)Man(a1-6)Man(b1-4)GlcNAc(b1-4)GlcNAc
Outline: as §1

[28] = target: Gal(b1-4)GlcNAc(b1-2)Man(a1-6)[GlcNAc(b1-2)Man(a1-3)]Man(b1-4)GlcNAc(b1-4)GlcNAc
Outline: as §1

[29] = target: Gal(b1-4)GlcNAc(b1-2)Man(a1-6)[Man(a1-3)]Man(b1-4)GlcNAc(b1-4)GlcNAc
Outline: as §1

[30] = target: Gal(b1-4)GlcNAc(b1-2)[Gal(b1-4)GlcNAc(b1-4)]Man(a1-3)[Gal(b1-4)GlcNAc(b1-2)Man(a1-6)]Man(b1-4)GlcNAc(b1-4)GlcNAc
Outline: as §1

B1: CwpV (Clostridium difficile), B6EFG6 (protein)
chain: MKIPKKIAAMLTVTMIAGSSTAGIASAQTVATNLTGQERYETAVKISQDGWKNADEVVIVNDSSIADALSATPFAKAKNAPILLTSKDKLNDKTKAEIQRLKAKKVYLIGGTSVLSTNIEKEIKDLKISFERISGAERYQTSLELAKKLDAISDVKKIAVVNGEKGLADAVSVGAPAAQNNMPVILADSKNGTAVADKFIKDAGITQSYVVGGESSISEAVKNKLPNSTRLGGTDRNDTNAKVIKEFYKKTDLKNAYVTKDGMNKQDQLIDALAVGVLGAKNQSPVVLVGKNLSASQKSLVNSKSFDKITKVGGNGNETAFNEMKSLQEVKTVEAKTISELKSAIDKATANDVINFKPTSEVKEAFTIQTDKAVTVNLNGTYTKTVTINMPNGDVNNYAKVDDVVIDDVKDGTFVNYGKITNLKVNDKNGAKIENNSKGEIGSLTVASGASQVKVTNGGKITTVTNNSKGTTIDNKGTISSVKGDNSPTISGNSPSSNSSGGSSSSGGSSGGSSGGSSSSKVGQIKFSATDKQIKMASGDKTVDPSDNTYILKLTNGTVKDGDVKANVKVAGLPSGLDYTAVGNRSANTITITVSGTTSQSIQNDLNNVSVLVKAGAVSGTGATDSIANTTFEIKKYVAAPAVGQLTFDATDKQIKMASGDKTVDPSDDTYVLTLTKGTAKDGDIKANVEVTGLPSGLDYTAEGDSSANTITIPVSGTASPAVQTDLDNVSVLVKAGAVSETTATDSAANATFEVKKYVAPAVGQLTFDATDKQIKMASGDKTVDPSDDTYVLTLTKGTAKDGDIKANVEVTGLPSGLDYTAEGDSSANTITITVSGTASQAVQTDLDNVSVLVKAGAVSETTATDSAANATFEVKKYVAPAIGQLTFDATDKQIKMASGDKTVDPSDDTYVLTLTKGTAKDGDIKANVEVTGLPSGLDYTAEGDSSANTITITVSGTASQAVQTDLDNVSVLVKAGAVSETTATDSAANATFEVKKHASDPISTIGKISSGLSSLFNILK
glycan array binding signal (z-score) [1]: -0.342
glycan array binding signal (z-score) [2]: -0.155
glycan array binding signal (z-score) [3]: -0.262
glycan array binding signal (z-score) [4]: -0.256
glycan array binding signal (z-score) [5]: 1.14
glycan array binding signal (z-score) [6]: 0.761
glycan array binding signal (z-score) [7]: 0.444
glycan array binding signal (z-score) [8]: -0.269
glycan array binding signal (z-score) [9]: 0.08
glycan array binding signal (z-score) [10]: -0.281
glycan array binding signal (z-score) [11]: -0.248
glycan array binding signal (z-score) [12]: -0.259
glycan array binding signal (z-score) [13]: -0.275
glycan array binding signal (z-score) [14]: -0.225
glycan array binding signal (z-score) [15]: -0.229
glycan array binding signal (z-score) [16]: -0.256
glycan array binding signal (z-score) [17]: -0.18
glycan array binding signal (z-score) [18]: -0.301
glycan array binding signal (z-score) [19]: -0.248
glycan array binding signal (z-score) [20]: -0.327
glycan array binding signal (z-score) [21]: -0.222
glycan array binding signal (z-score) [22]: -0.318
glycan array binding signal (z-score) [23]: 0.025
glycan array binding signal (z-score) [24]: -0.271
glycan array binding signal (z-score) [25]: -0.335
glycan array binding signal (z-score) [26]: -0.26
glycan array binding signal (z-score) [27]: -0.263
glycan array binding signal (z-score) [28]: -0.302
glycan array binding signal (z-score) [29]: -0.331
glycan array binding signal (z-score) [30]: -0.284
